Experimental data published in the supplement of paper PMC3724861.
Some of the results follow.

Test system: T1, Caupolican (Caup) homeodomain DNA-binding domain
T1 sequence: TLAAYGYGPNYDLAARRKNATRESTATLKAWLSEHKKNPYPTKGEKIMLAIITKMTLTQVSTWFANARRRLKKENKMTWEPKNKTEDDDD
Experiment: PBM E-score (8-mer, recovered from the published 9-mer minima) (E-score (dimensionless, -0.5 to 0.5)); Drosophila protein; higher = stronger relative binding preference, active = 0.31 or more
Experimental: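 Protein binding microarray (PBM): in vitro transcribed/translated Caupolican (Caup) homeodomain DNA-binding domain (residues 214-303) applied at 100 nM to a universal 8-mer PBM array (Agilent AMADID 015681). The 8-mer enrichment score (E-score, range -0.5 to 0.5) was computed, and each 9-mer score is the minimum E-score of its two constituent 8-mers. The E-score is the same for a 9-mer and its reverse complement; 0.31 is the stated binding threshold.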

Sequence	PBM E-score
ATATCCTC	inactive: 0.00247
AGGGTGAC	inactive: -0.144
CTATATCC	inactive: -0.0149
GACCTTAA	inactive: -0.0126
AGGGTGAG	inactive: -0.214
CAACTTGG	inactive: -0.014
AGAGTACT	inactive: 0.00038
CGACATTC	inactive: 0.191
GTAATCAA	inactive: 0.2
CTATTCGC	inactive: -0.0183
GAGGTACA	active: 0.326
AAGGGGTC	≥ -0.0704
GCAGACGC	inactive: -0.18
AACTGAAT	inactive: 0.0483
CTCGTCGA	inactive: -0.0232
GCCTCCCC	inactive: -0.269
AACTATCT	inactive: 0.0956
CCCCCTGC	inactive: -0.299
CTGAGCAC	inactive: 0.0158
AGTCCTGC	inactive: -0.00191
AGGTGGAA	inactive: 0.046
CCTATAAG	inactive: -0.0649
ACAGATCC	inactive: 0.0587
ACAAGTCG	inactive: 0.205
AAACACGT	active: 0.312

Sequence	PBM E-score
AGTTTAGA	inactive: 0.0189
AGGCACTA	inactive: -0.0995
AGGATACC	inactive: -0.0619
AGCTAGCG	inactive: -0.204
ATACGTCC	inactive: -0.086
AATCAATT	inactive: 0.127
AATTCTAG	inactive: 0.0641
CTCGGCAA	inactive: -0.0797
ACCGAAGA	≥ 0.00377
CAAGCAAC	inactive: 0.0807
CTTTATCC	inactive: -0.0399
GTAACGTA	inactive: 0.198
ATTGGCTA	inactive: -0.0305
CTCTGGCC	inactive: -0.252
ATGATACG	inactive: 0.144
GTGACCAA	inactive: -0.00763
GAACCCAC	inactive: -0.108
TGTACCAA	active: 0.312
ACCGGCCG	inactive: -0.188
AGATTTCG	inactive: -0.0539
CATTTCTA	inactive: 0.102
AGAGTTGA	inactive: -0.0246
GAAGTCCC	inactive: -0.213
GACGGGAA	inactive: -0.0636
TATGACCA	≥ 0.135

Sequence	PBM E-score
CGTGTAAG	active: 0.333
CCCAGGAC	inactive: -0.118
GCGTGCCA	inactive: -0.16
ATACTATC	inactive: 0.162
GATTCCAA	inactive: -0.0321
CCTCCGTC	inactive: -0.155
GAAGTGTA	inactive: 0.0941
ACGCTATC	inactive: -0.0224
AGTAGACG	inactive: 0.0495
AATACTAC	inactive: 0.207
ACAGGACG	inactive: 0.0904
GTTTAAAC	inactive: 0.193
GTAACGGA	inactive: 0.13
AAGAGCTT	inactive: -0.121
GTAAGGAC	inactive: 0.0555
ATAGAAAC	inactive: 0.105
CCGGTACC	inactive: -0.0922
AACGTATC	inactive: 0.0542
AGGTCTGC	inactive: -0.215
AACTGGAG	inactive: -0.105
AGCTCAAT	inactive: -0.0704
AGTAGAGC	inactive: 0.0068
CTTACTCA	inactive: -0.0442
GTGCGGTA	inactive: -0.0407
CCAGCAGG	inactive: -0.23

Sequence	PBM E-score
CTGTTTTC	inactive: 0.134
AACCTCTA	inactive: -0.109
ACAGGAGC	inactive: 0.0816
CTGCGCCA	inactive: -0.229
AACTTCGC	inactive: -0.0814
AGGTTGAG	inactive: -0.0734
TGTCCGAA	inactive: 0.198
ATAATGAC	inactive: 0.077
AGTCTGTA	inactive: 0.125
ATAGACCC	inactive: -0.0577
CAGTCGAC	inactive: -0.00263
ATCGCATC	inactive: -0.0871
GAGCCCGC	inactive: -0.251
GATGAAGA	inactive: -0.0652
GGCTCCAA	inactive: -0.199
AGAGTGGC	inactive: -0.0745
CACGGAGC	inactive: -0.071
GGACGTAA	inactive: -0.107
GGGAACTA	inactive: -0.0404
CCAAATCA	inactive: 0.0288
TGGATCAA	inactive: 0.0568
ACGGATGC	inactive: 0.0262
ACCCATGA	inactive: -0.0525
GCATACCA	inactive: -0.00368
ACCCCCGA	inactive: -0.198

Sequence	PBM E-score
CGCATTTC	inactive: -0.0244
ACATGTAC	active: ≥ 0.48
CTCTGACC	inactive: -0.164
CTTCTGTC	inactive: 0.0295
ACGGTCAT	inactive: -0.0146
CGGGAAAG	inactive: -0.172
CCGGAAAG	inactive: -0.15
CATCGCTA	inactive: 0.0831
TGTAAACA	active: ≥ 0.36
GTAGGTAA	inactive: 0.0776
TAACCACA	inactive: 0.156
ATAACGCA	inactive: 0.0314
CTAATGTA	inactive: 0.206
GAAGAAAC	inactive: 0.00987
ACAGCTAC	inactive: 0.196
AAACTAAA	inactive: 0.0783
GCTCGTCA	inactive: -0.063
GGCTAACC	inactive: -0.133
CGACACGC	inactive: 0.264
AATAGCTC	inactive: -0.0202
ATGATGGA	inactive: 0.0619
ATCGATCG	inactive: 0.115
ATCAGCGA	inactive: -0.0559
CTTATGGA	inactive: -0.105
AACGTGAA	inactive: 0.0764

Sequence	PBM E-score
GGTCATAC	inactive: -0.00437
GCCCCTCA	inactive: -0.223
CCAATAAC	inactive: 0.136
GTTATCAA	inactive: 0.0817
ACCGCGAA	inactive: -0.125
GCGACGTA	inactive: -0.0424
CATACCCC	inactive: -0.0672
CTTACTGC	inactive: -0.0218
ACCGGCTG	inactive: -0.142
CAAGCTTC	inactive: 0.0453
ACGGAACA	inactive: 0.206
AGACCTTG	inactive: -0.0574
ATGGGCTC	inactive: -0.099
ACTCCGAT	inactive: -0.084
CGATCTAG	inactive: 0.0352
CGCGTACG	inactive: -0.0471
ACTAATAA	inactive: 0.175
AAACCTCC	inactive: -0.124
AGTTCTGC	inactive: -0.0355
ACCCCCAA	≥ -0.112
ACGCCTAA	inactive: 0.0349
AGACTTCG	inactive: -0.0889
CAACACGC	inactive: 0.239
GCTACGGA	inactive: -0.0779
CGCCCATC	inactive: -0.155

Sequence	PBM E-score
CGTGAGTC	inactive: -0.0814
CTGTGCGA	inactive: -0.0551
CTGGAGTA	inactive: -0.0333
AACAAAGA	inactive: 0.0783
AAACAGCA	inactive: 0.163
AAGTCTGC	inactive: -0.0465
ATTTCCGA	inactive: -0.03
TGTTTCAA	≥ 0.243
CTAGACCC	inactive: -0.147
GCAATATA	inactive: 0.0608
AAAGCGCG	inactive: -0.104
CTATCGGA	inactive: 0.00343
ATCCCGGC	inactive: -0.153
AAGCACAC	inactive: 0.0261
CTAATCCC	inactive: 0.00576
CAGGCTGG	inactive: -0.157
CCGTGGGA	inactive: -0.195
CAGAGCCC	inactive: -0.202
CCTACCTA	inactive: 0.0226
AAAGCCGA	inactive: -0.139
GGCGGTCA	inactive: -0.235
TAGTTAAA	inactive: 0.141
ACCCAGCC	inactive: -0.2
GCGCCGAA	inactive: -0.103
CATGATCC	inactive: 0.0575

Sequence	PBM E-score
ACGGCACG	inactive: -0.0559
TACTCACA	inactive: 0.129
CGTATGTA	inactive: 0.289
AATTGCAG	inactive: 0.033
AACTCATG	inactive: 0.119
GAGGGTCC	inactive: -0.236
CTGAACTA	inactive: 0.0633
GGCGAGAA	inactive: -0.0726
CCTTGACC	inactive: -0.115
AGTCCGTG	inactive: -0.0293
TTGCCCAA	inactive: -0.127
GTCGAGAC	inactive: 0.0718
CGTCGTAG	inactive: -0.133
CGAGCGAA	inactive: -0.079
GCCGTGTA	active: 0.341
CGCCCATA	inactive: -0.126
TAGTCAGA	inactive: 0.0762
CAACACTC	inactive: 0.0803
GGTGTGAC	inactive: -0.0123
ATTGATAC	inactive: 0.139
CACATAAA	inactive: 0.121
CCATGGGC	inactive: -0.163
CATTCTCG	inactive: -0.0197
ACGTCATC	inactive: -0.0358
AGCTAAGA	inactive: -0.0433

Sequence	PBM E-score
GAGTCAAA	inactive: -0.0806
ACTGTTGC	inactive: 0.0834
GCCGACCC	inactive: -0.282
TAAATGTA	inactive: 0.258
GAGGGTTA	inactive: -0.0332
AGGGTCAC	inactive: -0.0853
CCAATCCG	inactive: -0.194
AGCAAATC	inactive: 0.0953
GGAGAGGA	inactive: -0.252
AATGTAAC	inactive: 0.295
CCCCGCAC	inactive: -0.203
CAGAATAC	inactive: 0.118
TGACCGCA	inactive: -0.0827
AAATCTCA	inactive: -0.00515
GACTTCCA	inactive: -0.143
CATCTCAA	inactive: 0.183
GTCTGAGA	inactive: -0.0277
ATCTAGAC	inactive: -0.00057
CTCGAAGA	inactive: -0.0993
CGTCTGCA	inactive: 0.00318
GAAATGTA	inactive: 0.131
CGAGTGAA	inactive: -0.00479
